In all, about 52,000 compounds went through this assay and about 4,300 (8.3%) were called active. Rule as the data show it: active = survival mostly below about 52% (no sharp cut-off); inactive = mostly above about 56%. The list shows a part of the results.
tested on: DeltatarO mutant; experiment: growth inhibition of S. aureus wild type versus tarO mutant, primary screen, teichoic acid synthesis inhibitors, RN4220, OD600 (AID 463173); conditions: OD600, 18 h, active compounds read low, screened at 18.75 µg/mL (by protocol)

Row | SMILES | survival
1 | CCOC(=O)c1ccc(NC(=O)CSc2cc(-c3ccccc3)nc(C)n2)cc1 | active: 40%
2 | Nc1ccccc1NC(=O)CCC(=O)O | inactive: 103%
3 | COCCn1c(Cc2ccccc2)nnc1SCC(=O)N(C)C | inactive: 81%
4 | Cc1c(C(=O)N2CCCCCC2)c(S(=O)(=O)Nc2ccc(OC(F)(F)F)cc2)c(C)n1C | inactive: 113%
5 | CCOC(=O)C1CCCN(C(=O)c2cc3c(Cl)nc4ccccc4c3s2)C1 (configuration not stated) | active: 26%
6 | COc1cccc2sc(N(Cc3cccnc3)C(=O)C3CCCCC3)nc12 | inactive: 86%
7 | CC(C)c1nn2c(=O)cc(COC(=O)c3cccc(NC(=O)c4ccccc4F)c3)nc2s1 | inactive: 67%
8 | CCOc1ccc(C2c3c(-c4ccccc4O)n[nH]c3C(=O)N2Cc2cccnc2)cc1OC (configuration not stated) | inactive: 90%
9 | O=C(Nc1cccc(Cl)c1)C(Cc1ccccc1)n1cccc1 (configuration not stated) | active: 11%
10 | CC(C)CC(=O)Nc1nnc(S(=O)(=O)N(C)c2ccc(Cl)cc2)s1 | inactive: 107%
11 | Cc1ccc(C)c(N(C)C(=O)CCNC(=O)Cn2cnc3ccccc3c2=O)c1 | inactive: 69%
12 | Cc1c(-c2ccc(Cl)cc2)c(=O)oc2c(CN3CCN(C)CC3)c(O)ccc12 | inactive: 107%
13 | CN1CCN(S(=O)(=O)c2ccc(Br)c3ccccc23)CC1 | inactive: 99%
14 | O=C(CNC(=O)c1ccccc1Cl)OCc1cc(=O)n2nc(C3CC3)sc2n1 | inactive: 78%
15 | Fc1ccc(F)c(Nc2c3c(nc4ccc(Cl)cc24)CCC3)c1 | active: -18%
16 | CCN(CC)CCCNC(=O)c1c2c(nc3ccccc13)C(=O)N(C1CCCCC1)C2 | inactive: 95%
17 | CCN(CC)S(=O)(=O)c1ccc(Nc2ccc(-c3ccc4c(c3)OCCO4)nn2)cc1 | inactive: 91%
18 | CCOC(=O)c1ccc2c(c1)sc1nc(-c3ccc(OCC)cc3)cn12 | active: 44%
19 | COc1cccc(CNC(=O)Cn2c(=O)cc(C(F)(F)F)c3c(C)nn(C)c32)c1OC | inactive: 90%

Row | SMILES | survival
20 | O=C(NCCS(=O)(=O)N1CCN(c2ccccc2F)CC1)c1ccccc1C(F)(F)F | inactive: 104%
21 | Cc1cccc(-c2nc(SCc3cc(=O)c4cccc(F)c4[nH]3)n[nH]2)c1 | inactive: 101%
22 | Cc1ccc(C)c(N2CCN(C(=O)CN3CCSc4ccccc43)CC2)c1 | inactive: 89%
23 | COc1cc(C(=O)Nc2ccccc2OCc2cc(=O)n3c(C)csc3n2)cc(OC)c1OC | inactive: 106%
24 | CNCC(=O)NC(c1ccccc1)c1ccccc1 | inactive: 97%
25 | CCOc1ccc(CCNC(=O)CSc2nnnn2-c2ccccc2Cl)cc1OCC | inactive: 72%
26 | COCCn1c(=N)c(C(=O)NCC2CCCO2)cc2c(=O)n3ccccc3nc21 (configuration not stated) | inactive: 63%
27 | O=S(=O)(Nc1ccccn1)c1cccs1 | inactive: 83%
28 | CCN1CCN(C(c2ccc(C)cc2)c2sc3nc(-c4ccco4)nn3c2O)CC1 (configuration not stated) | inactive: 67%
29 | Cc1ccc(NCc2nnc(SCC(=O)c3ccc(C)cc3)n2C)cc1 | inactive: 118%
30 | O=C1Nc2ccc(S(=O)(=O)N3CCCC3)c3cccc1c23 | inactive: 101%
31 | Cc1cccc2sc(N(Cc3cccnc3)C(=O)CCS(=O)(=O)c3ccccc3)nc12 | inactive: 89%
32 | COc1ccc(NC(=O)CCc2nc3cccnc3n2-c2ccccc2)c(OC)c1 | inactive: 62%
33 | COc1ccc(N2C(=O)C(CC(=O)Nc3ccc(Cl)cc3)N(Cc3ccc4c(c3)OCO4)C2=O)cc1 (configuration not stated) | inactive: 98%
34 | CS(=O)(=O)N(CC(=O)N1CCOCC1)c1cccc2ccccc12 | inactive: 76%
35 | CCOC(=O)c1c(NC(=O)c2cc(=O)c3cc(Cl)ccc3o2)sc(C)c1C | inactive: 51%
36 | CC(C)Sc1ncc(Cl)c(C(=O)Nc2nc3ccc(S(C)(=O)=O)cc3s2)n1 | inactive: 96%
37 | Cc1cc(-c2ccc(S(=O)(=O)Nc3cccc(C(F)(F)F)c3)s2)on1 | inactive: 108%
38 | CCOC(=O)c1ccc(NC(=O)C2=C(C)C(=O)OC23CCCCCC3)cc1 | inactive: 81%

Row | SMILES | survival
39 | CN(C(=O)CSc1nc2ccc(NC(=O)COc3ccc(F)cc3)cc2s1)c1ccccc1 | inactive: 73%
40 | COC(=O)C1=NNC2(c3ccc(C)cc3)C(=O)N(c3ccc(C)cc3)C(=O)C12 (configuration not stated) | inactive: 107%
41 | Cc1c(Cl)cccc1NC(=O)c1cc(-c2cccs2)on1 | inactive: 66%
42 | CCOC(=O)c1c(C)[nH]c(C)c1S(=O)(=O)N(C)CC(=O)Nc1cccc(Cl)c1C | inactive: 73%
43 | Cc1ccc(-n2ncc(C(=O)NCc3ccc4c(c3)OCO4)c2C2CCN(C(=O)OC(C)(C)C)CC2)cc1C | inactive: 84%
44 | COc1ccc(CN2CCCN(CC(=O)Nc3ccc(Br)cc3F)S2(=O)=O)cc1 | inactive: 88%
45 | Cc1ccc(NCc2cccn2-c2nnc(N3CCC(C(=O)NCc4ccccc4C)CC3)s2)cc1 | inactive: 92%
46 | Cc1c(C(=O)N2CCC(C)CC2)c(S(=O)(=O)Nc2cccc(C#N)c2)c(C)n1C | inactive: 101%
47 | CCOc1ccc(NC(=O)CC2Nc3cccc4cccc(c34)NC2=O)cc1 (configuration not stated) | active: 37%
48 | Cc1cc(N2CCOCC2)nc(=S)[nH]1 | inactive: 78%
49 | CC1=C(c2ccc(C)c(C)c2)S(=O)(=O)N=C1N1CCN(c2cccc(C)c2)C(C)C1 (configuration not stated) | inactive: 72%
50 | COc1ccc(C(=O)N2CCCCC2CCN2CCOCC2)cc1 (configuration not stated) | inactive: 86%
51 | CC(C)Cc1nn2c(=O)cc(COC(=O)c3cccc(NC(=O)c4cccs4)c3)nc2s1 | inactive: 83%
52 | Cc1ccccc1Cn1c(=O)n(CC2CCC(C(=O)N3CCC(C)CC3)CC2)c(=O)c2sccc21 (configuration not stated) | inactive: 73%
53 | COc1ccccc1CNC(=O)CCCn1c(=O)c2ccccc2n(CC(=O)Nc2ccc(C)cc2Cl)c1=O | inactive: 84%
54 | Cc1cc(C)c(NC(=O)C2CCN(C(=O)N3CC(C)Oc4ccc(Cl)cc43)CC2)c(C)c1 (configuration not stated) | inactive: 56%
55 | Cc1cc(C)cc(NS(=O)(=O)c2ccc(-c3cc(C)no3)s2)c1 | inactive: 89%
56 | COc1ccc(NC(=O)c2cc3c(=O)n(Cc4cccs4)ccc3nc2C)c(OC)c1 | inactive: 92%
57 | COc1ccc(NC(=O)Cn2c(=O)n(Cc3nc(C)no3)c(=O)c3cc4c(cc32)OCO4)cc1 | inactive: 99%

Reference: PubChem BioAssay AID463173 (ICCB-Longwood Screening Facility, Harvard Medical School, 2010)
